Consider nine molecules from paper PMC3448977 (Biochemistry, 2012).

The experiment addresses T1, Human BMP-9 (human, UniProt Q9UK05 320-429).
T1 sequence (looked up): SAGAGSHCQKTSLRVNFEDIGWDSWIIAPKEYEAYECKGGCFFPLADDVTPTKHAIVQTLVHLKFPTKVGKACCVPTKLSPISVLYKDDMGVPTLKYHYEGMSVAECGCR
Nature of the experiment: SPR. In general terms: Surface plasmon resonance follows binding to a sensor surface in real time, without labels.

B1: Alk1 extracellular domain (Alk1-ED), wild type (domain or fragment)
chain: not shown
The Kd is the concentration at which binding is half-saturated. Lower therefore signals a tighter complex. In the case of B1, the Kd turned out to be 29 nM.

B2: Alk1 extracellular domain H52A (domain or fragment)
chain: not shown
B2 had a Kd of 250 nM.

B3: Alk1 extracellular domain E54A (domain or fragment)
chain: not shown
Consider B3, for which binding was put at a Kd of 490 nM.

B4: Alk1 extracellular domain R26A (domain or fragment)
chain: not shown
Molecule B4 displayed a Kd of 31 nM.

B5: Alk1 extracellular domain R59A (domain or fragment)
chain: not shown
In the case of B5, binding was characterised by a dissociation constant (Kd) of 300 nM.

B6: Alk1 extracellular domain E54F (domain or fragment)
chain: not shown
Consider B6, for which the Kd was determined as 20 nM.

B7: Alk1 extracellular domain N50A (domain or fragment)
chain: not shown
The molecule B7 showed a Kd of 260 ± 10 nM.

B8: Alk1 extracellular domain R53D (domain or fragment)
chain: not shown
Take B8: binding was characterised by a dissociation constant (Kd) of 430 ± 60 nM.

B9: Alk1 extracellular domain R53A (domain or fragment)
chain: not shown
In turn, B9 showed a Kd of 87 nM.
